Measured values: PubChem BioAssay AID624418 (National Center for Advancing Translational Sciences (NCATS), 2012)
Out of some 410,000 compounds screened, about 530 (0.13%) were called active. This list was built around the results that the source calls inconclusive (neither active nor inactive); the mix of calls is not that of the screen. The call rests on the fitted dose curve; in most records, active means well fitted inhibition curve with a large enough effect; inconclusive means small, poorly fitted or top-dose-only effect, or another doubt; inactive means no such curve, though single readings can be large or run the other way. A potency beside an inconclusive call is a rough fit, not a confirmed value.

test: qHTS of GLP-1 Receptor Inverse Agonists: Cytotox Screen; details: HEK293 cAMP-luciferase reporter cells, luminescence, 24 h; activity change, negative = inhibition: at 38.3 µM (top of the series) unless noted
Procedure, shortened: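 MLSMR compounds, 24 hr on cells at 37 deg C/5% CO2; luminescence after luciferase reagent (12 min RT). Inhibition counted as the undesired cytotoxic outcome.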
On the % scale 0 is the no-effect control and ±100 the full control effect; potency means the concentration at half of the fitted maximal effect.

Question: With `C[C@@H](NC(=O)Cn1cnc2c(OCc3ccccc3)ncnc21)c1cccc2ccccc12` as the compound, how does the Potency read?
Answer: inconclusive: 7.94 µM [inhibitor, partial curve, poor fit]

Question: With `Cc1ccc(S(=O)(=O)Oc2ccccc2/C=N/Nc2ccc(C(=O)O)cc2)cc1` as the compound, how does the Potency read?
Answer: inconclusive: 11.2 µM [inhibitor, partial curve, poor fit]

Question: For `Cc1ccccc1C(=O)N1CCC(C(=O)Nc2nccs2)CC1`, which “activity change, negative = inhibition” value is on record?
Answer: inactive: -16.5%

Question: With `O=S(=O)(Nc1ccc(Cl)cc1)c1cccc2cccnc12` as the compound, how does the activity change, negative = inhibition read?
Answer: inconclusive: -31.2% [inhibitor]

Question: For `CN(C(=O)CSc1ncnc2sccc12)C1CCCCC1`, which “activity change, negative = inhibition” value is on record?
Answer: inactive: -19.8%

Question: Which “activity change, negative = inhibition” value does the source give for `CC(C)CCNC(=O)C1CCN(S(=O)(=O)c2ccc3c(c2)CCC(=O)N3)CC1` here?
Answer: inactive: 5.47%

Question: Which Potency does the source give for `O=C(Nc1ccc(SC(F)F)cc1)c1cc(-c2ccncc2)nc2ccccc12` here?
Answer: inconclusive: 28.2 µM [inhibitor, single point]

Question: With `C=CCn1c(-c2cc(Cl)ccc2OC)n[nH]c1=S` as the compound, how does the Potency read?
Answer: inconclusive: 28.2 µM [inhibitor, single point]

Question: Which Potency does the source give for `CC(C)Nc1nc(Cl)nc(N(C#N)CN2C(=O)c3ccccc3C2=O)n1` here?
Answer: inconclusive: 20 µM [inhibitor, single point]

Question: Which Potency does the source give for `Cc1ccc2sc(N(CCCN(C)C)C(=O)c3ccc(Br)s3)nc2c1C` here?
Answer: inconclusive: 12.6 µM [inhibitor, single point]

Question: For `Cc1ccc(-c2c[n+](CC(=O)c3ccc(Br)cc3)c3n2CCCCC3)cc1`, which Potency is on record?
Answer: inconclusive: 28.2 µM [inhibitor, single point]

Question: With `Cc1ccc(C(=O)N/N=C\c2ccc[nH]2)cc1[N+](=O)[O-]` as the compound, how does the Potency read?
Answer: inconclusive: 12.6 µM [inhibitor, single point]

Question: Which Potency does the source give for `CCOc1cc(/C=N\NC(=O)Cn2nc([N+](=O)[O-])cc2C)ccc1OCc1cccc2ccccc12` here?
Answer: inconclusive: 28.2 µM [inhibitor, single point]

Question: Which Potency does the source give for `Cc1ccc(Nc2nc(N)nc(CSc3nc4ccccc4s3)n2)cc1` here?
Answer: inactive

Question: Which “activity change, negative = inhibition” value does the source give for `COc1ccc(-c2coc3c(C(=O)N4CCN(C)CC4)cccc23)c(C)c1` here?
Answer: inactive: -5.68%

Question: For `Cc1ccc(S(=O)(=O)N2CCC(=O)N(C(COC(=O)Nc3ccccc3)Cc3ccccc3)CC2)cc1` (stereo unspecified), which Potency is on record?
Answer: inconclusive: 28.2 µM [inhibitor, partial curve, poor fit]

Question: With `O=C1C=C(c2ccc(OC(F)(F)F)cc2)C[C@@H](c2ccc(Cl)cc2)C1` as the compound, how does the Potency read?
Answer: inconclusive: 1 µM [inhibitor, full curve, poor fit]

Question: Which Potency does the source give for `Cc1cccc(NC(=S)NCCSc2ccc(Cl)cc2)c1` here?
Answer: inconclusive: 14.1 µM [inhibitor, single point]

Question: Which “activity change, negative = inhibition” value does the source give for `Cn1c(=O)c(=O)n(C)c2cc(N3CCCCC3)c(NS(=O)(=O)c3ccc([N+](=O)[O-])cc3)cc21` here?
Answer: inactive: -8.59%

Question: For `S=C(NCC1CCCO1)Nc1cc(Cl)c(Cl)cc1Cl` (stereo unspecified), which Potency is on record?
Answer: inconclusive: 28.2 µM [inhibitor, single point]

Question: Which “activity change, negative = inhibition” value does the source give for `Cc1cc(C)c(S(=O)(=O)Cc2ccccc2)c(OC(C)C)n1` here?
Answer: inactive: -3.74%

Question: Which Potency does the source give for `COc1ccc(/C=N/NC(=O)c2cccc([N+](=O)[O-])c2)cc1OS(=O)(=O)c1ccc(C)cc1` here?
Answer: inconclusive: 31.6 µM [inhibitor, single point]

Question: Which Potency does the source give for `CNC(=S)N/N=C/c1ccc(OCc2ccccc2)c(Br)c1` here?
Answer: inconclusive: 12.6 µM [inhibitor, partial curve, poor fit]

Question: For `CC(C)(C)OC(=O)NCc1ccc(NC(=O)c2nc[nH]c2C(=O)N[C@@H](Cc2ccccc2)C(=O)OCc2ccccc2)cc1`, which Potency is on record?
Answer: inconclusive: 12.6 µM [inhibitor, single point]

Question: With `COc1ccc2c(c1)-c1c(ssc1=S)C(C)(C)N2` as the compound, how does the Potency read?
Answer: inconclusive: 10 µM [inhibitor, single point]

Question: Which Potency does the source give for `NC(=O)CC(NC(=O)c1ccccc1)c1ccc(N2CCN(c3ccc(F)cc3)CC2)c([N+](=O)[O-])c1` (stereo unspecified) here?
Answer: inconclusive: 2.51 µM [inhibitor, partial curve, poor fit]

Question: With `CCc1ccc2oc(-c3cc(NC(=O)c4cc(OC)c(OC)c(OC)c4)ccc3O)nc2c1` as the compound, how does the “activity change, negative = inhibition” value read?
Answer: inactive: 4.52%

Question: For `FC(F)(F)c1cnc(N2CCCN(C(=S)Nc3ccccc3)CC2)c(Cl)c1`, which Potency is on record?
Answer: inconclusive: 28.2 µM [inhibitor, single point]

Question: With `CN(Cc1ccc(C(F)(F)F)cc1)C(=O)c1ccc2ccccc2n1` as the compound, how does the “activity change, negative = inhibition” value read?
Answer: inactive: -7.84%

Question: Which Potency does the source give for `Cc1ccc(C)c(NC(=S)NCCc2c[nH]c3ccccc23)c1` here?
Answer: inconclusive: 28.2 µM [inhibitor, single point]

Question: Which Potency does the source give for `CC/C(=N\NC(=O)c1ccc2c(c1)OCO2)C12CC3CC(CC(C3)C1)C2` here?
Answer: inconclusive: 12.6 µM [inhibitor, single point]

Question: With `O=C(NCCCN1CCCCCC1)c1ccc2c(Cl)c3c(nc2c1)CCCC3` as the compound, how does the Potency read?
Answer: inconclusive: 28.2 µM [inhibitor, single point]

Question: With `N#Cc1ccc(/C=C/C(=O)c2cccnc2)cc1` as the compound, how does the Potency read?
Answer: inconclusive: 31.6 µM [inhibitor, single point]

Question: With `COc1cccc(C(=O)/C(C#N)=N/Nc2cccc(-c3ccnc(C)n3)c2)c1` as the compound, how does the Potency read?
Answer: inconclusive: 1.26 µM [inhibitor, partial curve, poor fit]

Question: Which Potency does the source give for `COC(=O)c1sc2cc(C(F)(F)F)cnc2c1-c1ccccn1` here?
Answer: inconclusive: 28.2 µM [inhibitor, single point]

Question: For `COc1cccc(NC(=O)C2CCC(CNS(=O)(=O)c3csc(C(N)=O)c3)CC2)c1` (stereo unspecified), which “activity change, negative = inhibition” value is on record?
Answer: inactive: 4.74%

Question: For `C/C(=N\NC(=O)c1cc(-c2cccs2)nc2ccccc12)c1ccccn1`, which Potency is on record?
Answer: inconclusive: 3.98 µM [inhibitor, full curve, poor fit]

Question: With `COc1ccc(OC)c(-n2c(CNC3CCN(Cc4ccccc4)CC3)nc3ccccc3c2=O)c1` as the compound, how does the Potency read?
Answer: inconclusive: 2.24 µM [inhibitor, partial curve, poor fit]

Question: Which Potency does the source give for `CCOc1cc(/C=C/c2ccc3cccc([N+](=O)[O-])c3n2)ccc1OCC(=O)N(C)C` here?
Answer: inconclusive: 11.2 µM [inhibitor, single point]

Question: Which Potency does the source give for `CS(=O)(=O)c1ncc(Cl)c(C(=O)Nc2ccc3ccccc3c2)n1` here?
Answer: inconclusive: 3.98 µM [inhibitor, full curve]

Question: With `CCc1ccc(NC(=O)C(C)OC(=O)c2ccc(NS(=O)(=O)c3ccc(C)c([N+](=O)[O-])c3)cc2)cc1` (stereo unspecified) as the compound, how does the Potency read?
Answer: inconclusive: 12.6 µM [inhibitor, single point]
